Here are results for 153 variants from a collection of fitness landscapes (doi:10.1126/science.1257360).

The labels stand for the following.
B1: PhoQ; a variant is named by its letters at X, in order, P23837 (parent)
chain: MKKLLRLFFPLSLRVRFLLATAAVVLVLSLAYGMVALIGYSVSFDKTTFRLLRGESNLFYTLAKWENNKLHVELPENIDKQSPTMTLIYDENGQLLWAQRDVPWLMKMIQPDWLKSNGFHEIEADVNDTSLLLSGDHSIQQQLQEVREDDDDAEMTHSVAVNVYPATSRMPKLTIVVVDTIPVELKSSYMVWSWFIYVLSANLLLVIPLLWVAAWWSLRPIEALAKEVRELEEHNRELLNPATTRELTSLVRNLNRLLKSERERYDKYRTTLTDLTHSLKTPLXXLQXXLRSLRSEKMSVSDAEPVMLEQISRISQQIGYYLHRASMRGGTLLSRELHPVAPLLDNLTSALNKVYQRKGVNISLDISPEISFVGEQNDFVEVMGNVLDNACKYCLEFVEISARQTDEHLYIVVEDDGPGIPLSKREVIFDRGQRVDTLRPGQGVGLAVAREITEQYEGKIVAGESMLGGARMEVIFGRQHSAPKDE

This is one part of the list.

In this assay the parent is B1. In words: enrichment ratio after two sorts for PhoP signalling (ratio (wild type AVST 3.29)); higher = more functional. To be noted: with PhoP (E. coli).
With GVGQ, the enrichment ratio is no more than 0.25. With KLHY the figure was no more than 0.25; with HYRK, no more than 0.25; with ESQS, no more than 0.25. With FVHG the figure was no more than 0.25; with QPGN, no more than 0.25; with IRMQ, no more than 0.25.

For the variant SSLT, the enrichment ratio amounted to 12. As to RVPH, the enrichment ratio is no more than 0.25. In the case of QNTN it was no more than 0.25; in that of EFGR, no more than 0.25; in that of LSGM, no more than 0.25. In the case of SRNY it was no more than 0.25; in that of NGMT, no more than 0.25. With LADG the figure was no more than 0.25; with SFRA, no more than 0.25.

Regarding IHVY, the enrichment ratio is no more than 0.25. Turning to VVYV, the enrichment ratio is no more than 0.25. In the case of FASH it was no more than 0.25; in that of QLLK, no more than 0.25. With QNHS the figure was no more than 0.25. With RPHV the figure was no more than 0.25; with SMVQ, 9.3; with HPMW, no more than 0.25. KLLE: the enrichment ratio was no more than 0.25. Regarding VTGP, the enrichment ratio was no more than 0.25. Take SFGD: the enrichment ratio is no more than 0.25. Consider QNMP, for which the enrichment ratio is no more than 0.25.

With QCVW, the enrichment ratio is no more than 0.25. For QARG, the enrichment ratio is no more than 0.25. With NMVP the figure was no more than 0.25; with WDMY, no more than 0.25. Turning to LMAD, the enrichment ratio was no more than 0.25. Take SDHC: the enrichment ratio was no more than 0.25.

As for IIFM, the enrichment ratio is no more than 0.25.

Take FPFQ: the enrichment ratio is no more than 0.25. Regarding FEPT, the enrichment ratio was no more than 0.25. With WERV the figure was no more than 0.25; with IRNS, no more than 0.25; with VDTL, no more than 0.25.

Take QPHK: the enrichment ratio was no more than 0.25.

Consider IYTE, for which the enrichment ratio was no more than 0.25. YRCS: the enrichment ratio was no more than 0.25.

With PVHM, the enrichment ratio is no more than 0.25. With FPPN the figure was no more than 0.25. In the case of QIGN it was no more than 0.25; in that of RNYH, no more than 0.25; in that of MKPT, no more than 0.25. With HVWI the figure was no more than 0.25. As for LKQI, the enrichment ratio came to 0.57. Take KVHH: the enrichment ratio is no more than 0.25. On to GSLC, for which the enrichment ratio was determined as 9.17.

On to SRVC, for which the enrichment ratio was no more than 0.25. With IATD the figure was no more than 0.25. With QYSV the figure was no more than 0.25; with IEES, no more than 0.25. As for TTWL, the enrichment ratio came to 4.31. With SEAI the figure was 7.14; with KFSF, no more than 0.25. In the case of PLGN it was no more than 0.25; in that of LCWG, no more than 0.25; in that of RFYY, no more than 0.25. With LWAP the figure was no more than 0.25; with MTHM, 1.64; with SAHV, no more than 0.25. As to WLRV, the enrichment ratio was no more than 0.25. As to RHLD, the enrichment ratio is no more than 0.25. On to YPWA, for which the enrichment ratio was no more than 0.25. In the case of IQTC it was no more than 0.25; in that of VEWL, no more than 0.25; in that of MIKI, no more than 0.25. In the case of PGPD it was no more than 0.25; in that of FDFS, no more than 0.25; in that of TCWT, 2.84.

For EVYT, the enrichment ratio was no more than 0.25. With CALR the figure was no more than 0.25; with RWKC, no more than 0.25. Take SRPQ: the enrichment ratio is no more than 0.25. In the case of DHWM it was no more than 0.25.

Consider TEFN, for which the enrichment ratio was found to be 18.2.

On to RCQC, for which the enrichment ratio is no more than 0.25. For LQQA, the enrichment ratio is no more than 0.25. With INQP, the enrichment ratio was no more than 0.25. HARN: the enrichment ratio is no more than 0.25. With AWWV the figure was no more than 0.25; with VRNK, no more than 0.25; with HLGL, no more than 0.25. Take ERMI: the enrichment ratio is no more than 0.25. In the case of FYMK it was no more than 0.25; in that of MFFC, no more than 0.25. In the case of IVRG it was 0.714; in that of RPTG, no more than 0.25.

Consider QPNK, for which the enrichment ratio is no more than 0.25. Take EGTT: the enrichment ratio was no more than 0.25. With VVIM the figure was no more than 0.25; with GKDR, no more than 0.25; with ARPR, no more than 0.25. FYNI: the enrichment ratio was no more than 0.25. With DERL the figure was no more than 0.25; with QELG, 0.792.

Take PFIP: the enrichment ratio was no more than 0.25. For AVNL, the enrichment ratio is no more than 0.25. With NFHW the figure was no more than 0.25; with GHMW, no more than 0.25. With IYDN, the enrichment ratio is no more than 0.25.

With NKPQ, the enrichment ratio is no more than 0.25. With LRDP the figure was no more than 0.25; with PREN, no more than 0.25. In the case of SNCY it was 7.63.

For HPIS, the enrichment ratio is no more than 0.25.

Regarding PIRA, the enrichment ratio was no more than 0.25. With VSLD the figure was no more than 0.25. As to ISMG, the enrichment ratio is 1.17. In the case of LYGK it was no more than 0.25; in that of FPGR, no more than 0.25; in that of NRFQ, 4.31.

With ATWK, the enrichment ratio is no more than 0.25.

For KIPQ, the enrichment ratio is no more than 0.25.

Regarding PHSK, the enrichment ratio is no more than 0.25.

Turning to NIQM, the enrichment ratio is no more than 0.25. As to DFYF, the enrichment ratio was no more than 0.25. With MTPT the figure was no more than 0.25; with TKCM, 46.1.

For WHVS, the enrichment ratio is no more than 0.25. In the case of HKGP it was no more than 0.25. As for IHYS, the enrichment ratio was no more than 0.25. With FHCK, the enrichment ratio was no more than 0.25. Regarding TWAP, the enrichment ratio is no more than 0.25. In the case of IVVG it was no more than 0.25; in that of DWNF, no more than 0.25; in that of ACNT, no more than 0.25. For KEPG, the enrichment ratio is no more than 0.25.

As to FAVE, the enrichment ratio is no more than 0.25.

NLYM: the enrichment ratio was no more than 0.25. With NNFD the figure was no more than 0.25; with RHYN, no more than 0.25. In the case of PRYQ it was no more than 0.25; in that of VQDI, no more than 0.25; in that of NVVV, no more than 0.25. With MNLP the figure was no more than 0.25. Regarding AYTD, the enrichment ratio was no more than 0.25. In the case of ILHA it was no more than 0.25. As for ESQE, the enrichment ratio is no more than 0.25. As for YWWH, the enrichment ratio was no more than 0.25. In the case of DYWT it was no more than 0.25; in that of SRGG, no more than 0.25. In the case of YNEH it was no more than 0.25; in that of TSDF, 4.52. With WTEP, the enrichment ratio was no more than 0.25.

As to FAHV, the enrichment ratio is no more than 0.25. In the case of IFRS it was no more than 0.25; in that of RNRQ, no more than 0.25; in that of YNFP, no more than 0.25.
